Source: a compilation of properties of binary mixtures (doi:10.1021/ie8009878)
The densities may have been worked out from excess volumes.

Experiment: xn = mol fraction of the nth substance listed
Conditions: 101 kPa

## CCCC[n+]1ccccc1C.F[B-](F)(F)F + CCCCO
318.15 K, x2 = 0.1057
  mass density: 1168.6 kg/m3
318.15 K, x2 = 0.2855
  mass density: 1128.5 kg/m3
318.15 K, x2 = 0.3872
  mass density: 1101.2 kg/m3
318.15 K, x2 = 0.4423
  mass density: 1084.5 kg/m3

## CCCC[n+]1ccccc1C.F[B-](F)(F)F + CCCO
298.15 K, x2 = 0.1446
  mass density: 1178.4 kg/m3
298.15 K, x2 = 0.2848
  mass density: 1150.4 kg/m3
298.15 K, x2 = 0.3627
  mass density: 1132.2 kg/m3
298.15 K, x2 = 0.4723
  mass density: 1102.2 kg/m3
318.15 K, x1 = 0.0191
  mass density: 804 kg/m3
318.15 K, x2 = 0.0615
  mass density: 1179.2 kg/m3
318.15 K, x2 = 0.1135
  mass density: 1170.8 kg/m3
318.15 K, x2 = 0.1856
  mass density: 1157.9 kg/m3
318.15 K, x2 = 0.2171
  mass density: 1152.3 kg/m3
318.15 K, x2 = 0.2445
  mass density: 1147.1 kg/m3
318.15 K, x2 = 0.388
  mass density: 1113.7 kg/m3
318.15 K, x2 = 0.4615
  mass density: 1093.2 kg/m3
318.15 K, x2 = 0.58
  mass density: 1053.6 kg/m3
318.15 K, x2 = 0.7302
  mass density: 987.5 kg/m3
318.15 K, x2 = 0.9638
  mass density: 821.6 kg/m3

## CCCC[n+]1ccccc1C.F[B-](F)(F)F + CCO
298.15 K, x2 = 0.1755
  mass density: 1185.5 kg/m3
298.15 K, x2 = 0.2602
  mass density: 1175.5 kg/m3
298.15 K, x2 = 0.3754
  mass density: 1158.5 kg/m3
298.15 K, x2 = 0.614
  mass density: 1104.3 kg/m3
298.15 K, x2 = 0.7324
  mass density: 1058.8 kg/m3
298.15 K, x2 = 0.875
  mass density: 963.6 kg/m3
298.15 K, x2 = 0.9453
  mass density: 882.7 kg/m3
318.15 K, x2 = 0.1335
  mass density: 1171.1 kg/m3
318.15 K, x2 = 0.2173
  mass density: 1158.7 kg/m3
318.15 K, x2 = 0.2896
  mass density: 1145.8 kg/m3
318.15 K, x2 = 0.3501
  mass density: 1134.3 kg/m3
318.15 K, x2 = 0.4186
  mass density: 1119.4 kg/m3
318.15 K, x2 = 0.5603
  mass density: 1079.7 kg/m3
318.15 K, x2 = 0.9473
  mass density: 839 kg/m3

## CCCC[n+]1ccccc1C.F[B-](F)(F)F + CO
298.15 K, x2 = 0.1439
  mass density: 1189.1 kg/m3
298.15 K, x2 = 0.2007
  mass density: 1182.9 kg/m3
298.15 K, x2 = 0.2942
  mass density: 1171.4 kg/m3
298.15 K, x2 = 0.448
  mass density: 1146.3 kg/m3
298.15 K, x2 = 0.4903
  mass density: 1138 kg/m3
298.15 K, x2 = 0.6951
  mass density: 1077.5 kg/m3
298.15 K, x2 = 0.7904
  mass density: 1030.6 kg/m3
298.15 K, x2 = 0.8491
  mass density: 989.6 kg/m3
298.15 K, x2 = 0.9468
  mass density: 884 kg/m3
318.15 K, x2 = 0.134
  mass density: 1176.9 kg/m3
318.15 K, x2 = 0.2144
  mass density: 1168.1 kg/m3
318.15 K, x2 = 0.4642
  mass density: 1130.8 kg/m3
318.15 K, x2 = 0.5264
  mass density: 1117.2 kg/m3
318.15 K, x2 = 0.585
  mass density: 1102.2 kg/m3
318.15 K, x2 = 0.669
  mass density: 1075 kg/m3
318.15 K, x2 = 0.7765
  mass density: 1025 kg/m3
318.15 K, x2 = 0.8507
  mass density: 972.7 kg/m3
318.15 K, x2 = 0.9194
  mass density: 902.5 kg/m3
318.15 K, x2 = 0.9656
  mass density: 836.1 kg/m3

## CCCC[n+]1ccccc1C.F[B-](F)(F)F + O
298.15 K, x2 = 0.0741
  mass density: 1199.9 kg/m3
298.15 K, x2 = 0.1008
  mass density: 1199 kg/m3
298.15 K, x2 = 0.15
  mass density: 1197.3 kg/m3
298.15 K, x2 = 0.2898
  mass density: 1191.7 kg/m3
298.15 K, x2 = 0.357
  mass density: 1188.3 kg/m3
298.15 K, x2 = 0.427
  mass density: 1184.3 kg/m3
298.15 K, x2 = 0.4888
  mass density: 1180.1 kg/m3
298.15 K, x2 = 0.6614
  mass density: 1163.5 kg/m3
298.15 K, x2 = 0.7167
  mass density: 1155.5 kg/m3
298.15 K, x2 = 0.8002
  mass density: 1138.5 kg/m3
298.15 K, x2 = 0.8483
  mass density: 1124.1 kg/m3
298.15 K, x2 = 0.899
  mass density: 1102.2 kg/m3
298.15 K, x2 = 0.9498
  mass density: 1066.3 kg/m3
318.15 K, x2 = 0.0694
  mass density: 1186.7 kg/m3
318.15 K, x2 = 0.2203
  mass density: 1181 kg/m3
318.15 K, x2 = 0.2925
  mass density: 1177.9 kg/m3
318.15 K, x2 = 0.3514
  mass density: 1175.1 kg/m3
318.15 K, x2 = 0.6173
  mass density: 1154.5 kg/m3
318.15 K, x2 = 0.7059
  mass density: 1142.8 kg/m3
318.15 K, x2 = 0.7951
  mass density: 1125.1 kg/m3
318.15 K, x2 = 0.8508
  mass density: 1108.6 kg/m3
318.15 K, x2 = 0.8999
  mass density: 1087.8 kg/m3
318.15 K, x2 = 0.9503
  mass density: 1053.7 kg/m3
